# Assay results taken from PubChem BioAssay AID1345083 (National Center for Advancing Translational Sciences (NCATS), 2018).
# Screen size: about 94,000 compounds; about 6,200 (6.6%) were called active. Inconclusive results, whose numbers are uncertain, are shown with a selection of clear calls. Calls follow the shape of the dose curve; as a rule, active = well fitted inhibition curve with a large enough effect; inconclusive = small, poorly fitted or top-dose-only effect; inactive = flat fitted curve, though single readings scatter. Potencies beside an inconclusive call are fits to weak or partial responses and may not hold up.
# Assay: Cytotoxic Profiling in HEK 293 Cell Line of Diverse Libraries Using Quantitative High-Throughput Screening; also: nearly all actives have a fitted effect of over 60% in size
# Settings: HEK 293 viability, ATP luminescence (CellTiter-Glo), 48-72 h; activity change, negative = cytotoxicity: at 115 µM (top of the series) unless noted; series mostly up to 115 µM
# Method in brief: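 HEK 293 cells seeded at 250 cells/well were exposed to compound for 48 or 72 hr at 37 degree Celsius. Viability taken as ATP content by CellTiter-Glo luminescence.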
# % is scaled to controls: 0 for no effect and ±100 for the full control effect; potency is read from the fitted curve at half-maximal effect; tags tell the direction and shape of the fitted curve.
SMILES,Potency,"activity change, negative = cytotoxicity",outcome
CCc1nnc2ccc(NCc3ccccc3)nn12,"inconclusive: 44.7 µM [inhibitor, full curve, poor fit]",,
CCS(=O)(=O)N(C1CC1)C1CCOC2(CCN(C(=O)CCCc3ccccc3)CC2)C1 (stereo not given),"inconclusive: 79.4 µM [inhibitor, partial curve]",,
COCCNC(=O)C1c2ccccc2C(=O)N(C2CCCCC2)C12CCCCC2 (stereo not given),"inconclusive: 44.7 µM [inhibitor, partial curve, poor fit]",,
COc1ccc(-c2ccc(C(=O)N3CCN(Cc4ccccc4)CC3)cc2)nn1,"inconclusive: 50.1 µM [inhibitor, partial curve, poor fit]",,
COC(=O)[C@@H]1Cc2ncn(C)c2CN1C(=O)c1ccc(-c2ccccc2)cc1,"inconclusive: 100 µM [inhibitor, partial curve, poor fit]",,
CC(C)c1ccc(NC(=O)C2CCN(c3cc(C(F)(F)F)ncn3)CC2)cc1,"inconclusive: 35.5 µM [inhibitor, partial curve, poor fit]",,
O=C(CCc1nc2ccccc2s1)N1CCCC(c2nc(C3CCOCC3)no2)C1 (stereo not given),"inconclusive: 70.8 µM [inhibitor, partial curve, poor fit]",,
CC[C@H]1CN(C(=O)c2cccnc2)CC[C@H]1CC(=O)NCc1cccnc1,,inactive: -7.23% [at 172 µM],
COc1ccc(C(=O)NC2CCN(c3cc(-c4ccc(Cl)cc4)[nH]n3)C2)cc1 (stereo not given),"inconclusive: 39.8 µM [inhibitor, partial curve, poor fit]",,
COC[C@H]1NC(=O)CC[C@H]1C(=O)NCCCc1ccccc1,"inconclusive: 44.7 µM [inhibitor, partial curve, poor fit]",,
CCCNC(=O)Cc1ccc(N(Cc2ccc(C)cc2)C(=O)c2ccco2)cc1,"inconclusive: 79.4 µM [inhibitor, partial curve]",,
O=[S+]([O-])(NC1CCN(Cc2cccc(-c3ccc(F)c(F)c3)c2)CC1)c1ccccc1,active: 28.2 µM,,
Cc1noc(C)c1C(=O)N1CCC2(CC1)CC(c1ccccc1)C(=O)N2C (stereo not given),,,inactive
COc1cccc2sc(NC(=O)c3ccc4c(c3)OCCN(C3CCC3)C4)nc12,active: 31.6 µM,,
CN(Cc1ccccc1)Cc1ccccc1OCC(O)CN1CCCCC1 (stereo not given),"inconclusive: 17.8 µM [inhibitor, full curve, poor fit]",,
CN1CCN(Cc2ccc(-c3cnc4c(OCc5ccccc5)nccn34)cc2)CC1,"inconclusive: 112 µM [inhibitor, partial curve, poor fit]",,
COc1ccccc1-c1cccc(C(=O)N2CCC[C@H]2C(=O)NCCc2ccc(F)cc2)c1,"inconclusive: 35.5 µM [inhibitor, partial curve, poor fit]",,
CCn1cnnc1CC1CCN(C(=O)c2cnn3c(C)c(Cc4ccccc4Cl)c(C)nc23)CC1,"inconclusive: 89.1 µM [inhibitor, single point]",,
Cc1onc(-c2cnn(C)c2NCCc2ccccc2)c1C(=O)NCc1ccccc1,"inconclusive: 112 µM [inhibitor, partial curve, poor fit]",,
CN(C)c1nc2c(c(=O)[nH]1)CCN(Cc1cccc(Cl)c1F)CC2,"inconclusive: 17.8 µM [inhibitor, full curve]",,
CC(C)c1ccc(CN2CC(CN[S+](=O)([O-])c3ccccc3)C3(C2)CN(c2ccccc2)C3)cc1 (stereo not given),"inconclusive: 44.7 µM [inhibitor, partial curve, poor fit]",,
O=C(Nc1cccc(-c2nnc3n2CCCC3)c1)c1nccc2ccccc12,"inconclusive: 89.1 µM [inhibitor, single point]",,

SMILES,Potency,"activity change, negative = cytotoxicity",outcome
COc1ccc(C)cc1NC(=O)Nc1cccc(-c2ccc(N3CCCCC3)nn2)c1,"inconclusive: 50.1 µM [inhibitor, partial curve, poor fit]",,
Cc1cnn(CCC(=O)N2CCC(C3CCN(S(C)(=O)=O)CC3)C2)c1 (stereo not given),,inactive: -9.91%,
C[S+](=O)([O-])CCn1ncc2cc(OCc3cccc(-c4ccc(Cl)cc4)c3)ccc21,"inconclusive: 39.8 µM [inhibitor, partial curve, poor fit]",,
COc1cccc(-c2ccc(C(=O)N3CCC(C(=O)NC4CCCCC4)CC3)cc2)c1,"inconclusive: 79.4 µM [inhibitor, partial curve, poor fit]",,
O=C(Nc1cccnc1)[C@@H]1C[C@@H](c2ccc(F)cc2)N([S+](=O)([O-])c2ccccc2)C1,"inconclusive: 100 µM [inhibitor, partial curve]",,
COc1ccccc1C(=O)N1CCC(Oc2ccc(C(N)=O)cn2)CC1,,inactive: -14.4%,
N#Cc1cccc(CN2CC3(COCC(=O)N(Cc4cccc(OC(F)(F)F)c4)C3)C2)c1,"inconclusive: 31.6 µM [inhibitor, full curve, poor fit]",,
COc1ccccc1CC(=O)N1CCC2(CC1)N=C(c1cccc(Br)c1)NO2,"inconclusive: 50.1 µM [inhibitor, partial curve, poor fit]",,
Cc1ccccc1N(C)C1CN(C(=O)c2ccc3c(c2)OCO3)C1,"inconclusive: 56.2 µM [inhibitor, partial curve, poor fit]",,
O=C(C1CCCN1C(=O)c1ccccc1F)N1CCC(N2CCCC2=O)CC1 (stereo not given),,inactive: -4.88%,
COc1ccc2[nH]c(C(=O)N3CCCN(S(=O)(=O)c4ccccc4)CCC(=O)NCC3)cc2c1,"inconclusive: 89.1 µM [inhibitor, single point]",,
CCc1cccc(NC(=O)CCC2CCN(C(=O)c3ccccc3)CC2)c1,"inconclusive: 50.1 µM [inhibitor, partial curve, poor fit]",,
CN1CCCC(CN(C)C(=O)c2cc(-c3cnn(CCO)c3)nc3ccccc23)C1 (stereo not given),,inactive: -26.5%,
Cc1cc(C)cc(-c2nc(C3CC(=O)N(c4ccc(F)cc4)C3)no2)c1 (stereo not given),"inconclusive: 89.1 µM [inhibitor, single point]",,
CCC(=O)N1CCc2c(C(=O)Nc3ccc(N4CCOCC4)cc3)cccc21,,inactive: -9.68%,
COC(=O)NC1CCCN(Cc2ccc(-c3cccc(OC)c3)cc2)C1 (stereo not given),active: 44.7 µM,,
N#Cc1cccnc1N1CCC(NC(=O)c2ccc3nccn3c2)CC1,"inconclusive: 31.6 µM [inhibitor, partial curve, poor fit]",,
O=C1C[C@@H]2CCN(C(=O)c3ccccc3)C[C@@H]2CCN1CCN1CCNC1=O,,inactive: -8.71% [at 172 µM],
Cc1ccsc1C(=O)N1CC(Oc2ccc(-c3nc(-c4ccccc4)no3)cc2)C1,,inactive: -2.84%,
CC(C)Oc1ccc2c(NC(=O)C3(C(N)=O)CC3)nn(CC(F)(F)F)c2c1,,inactive: -14.7%,
COc1ccc(N2CC(C(=O)N3CCCOCC3)CC2=O)cc1Cl (stereo not given),,inactive: 1.93%,
Cn1cc([C@@H](NC(=O)c2cccc3c2NCCC3)C2CC(O)C2)cn1 (stereo not given in full),"inconclusive: 44.7 µM [inhibitor, partial curve]",,

SMILES,Potency,"activity change, negative = cytotoxicity",outcome
COc1ccc(N2Cc3c(NCC(C)(C)C)ncnc3N(C)CC2=O)cc1,,inactive: -7.8%,
CC(Oc1ccccc1)C(=O)N1CCCN(c2cc(-c3ccc(Cl)cc3)[nH]n2)CC1 (stereo not given),active: 39.8 µM,,
CCn1cc(S(=O)(=O)N2CCC(c3ncc(C)n3Cc3ccccc3)C2)cn1 (stereo not given),"inconclusive: 56.2 µM [inhibitor, partial curve, poor fit]",,
Cc1ncccc1C(=O)N1CCC2(CC1)NCCc1c2[nH]c2ccccc12,,inactive: -10.7%,
COCCC(=O)N1CC(c2nc(CCOc3cccc(C)c3)no2)C1,"inconclusive: 100 µM [inhibitor, single point]",,
O=C(O)CCC(=O)N[C@H]1CO[C@H]2[C@@H]1OC[C@@H]2Nc1nccc(-c2ccco2)n1,,inactive: 3.64% [at 172 µM],
C[C@]1(CO)[C@H]2Cc3sc(NC(=O)c4cccc(F)c4)nc3[C@@H](CC(=O)NCc3ccco3)[C@]2(C)CC[C@H]1O,"inconclusive: 50.1 µM [inhibitor, partial curve, poor fit]",,
O=C(c1ccccn1)N1CCC2(CC1)CC(N(Cc1ccc(F)cc1)C1CC1)CCO2 (stereo not given),"inconclusive: 44.7 µM [inhibitor, partial curve]",,
CC(C)CNc1nccc(C2(c3ccccc3Cl)CCNCC2)n1,active: 25.1 µM,,
O=C(c1cccc(F)c1)N1CCC(Cc2nc(-c3ccccc3)no2)CC1,"inconclusive: 28.2 µM [inhibitor, partial curve, poor fit]",,
O[C@H]1[C@H](NCc2ccc(-c3ccccc3)cc2)[C@H]2CO[C@H](O2)[C@@H]1Sc1ccccc1,active: 39.8 µM,,
Cc1cccc(CN2CCCCCCNC(=O)CC2)c1,,inactive: -0.499%,
O=C1NC2(CCN(C(=O)c3ccc(C(F)(F)F)cc3)CC2)COc2ccccc21,,inactive: 3.41%,
CCCn1cc(C(=O)N2C[C@H](c3ccccc3)[C@@H](N)C2)c(C)n1,,inactive: 2.2%,
Cc1nnc2ccc(N3CCN(C(=O)c4ccc(Cl)nc4)CC3)nn12,,inactive: -2.9%,
COc1cccc(CN2CCc3nc(C)nc(-c4ccc(O)cc4)c3C2)c1,"inconclusive: 56.2 µM [inhibitor, partial curve, poor fit]",,
N#Cc1ccc(CN2CCC3(C2)C(=O)N(c2ccccc2)c2ccccc23)cc1 (stereo not given),active: 15.8 µM,,
Cc1noc([C@@H]2CN(C(=O)CC3CCCC3)C[C@H]2CO)n1,,,inactive
O=C(CCc1ccnc(N2CCCC2)c1)NCc1ccc(F)c(Cl)c1,"inconclusive: 89.1 µM [inhibitor, single point]",,
Cc1ccc(-c2ncc(NC(=O)c3ccccc3F)cn2)cc1,,inactive: 5.81%,
COc1cccc(CNC(=O)c2cc(-c3ccc(F)cc3)c3nncn3n2)c1,"inconclusive: 56.2 µM [inhibitor, partial curve, poor fit]",,
